In PubChem BioAssay AID1346428 (National Center for Advancing Translational Sciences (NCATS), 2018):
The campaign covered roughly 48,000 compounds. About 1,200 (2.5%) were called active. About 2% were inconclusive and are not listed.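 How the source made its calls: active means activation of at least 60% and not above a set upper limit (about 1 call in 100 departs from these limits); inconclusive means activation of 40% to 60%, or above that upper limit; inactive means activation under 40%.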 Some of the results follow.

What follows are compounds tested against Probable G-protein coupled receptor 32 (Homo sapiens) (UniProt O75388) (assay: qHTS for Agonists of Human Resolvin D1 Receptor DRV1). Conditions: CHO-K1 GPR32 beta-arrestin PathHunter luminescence, 90 min; at 76.9 µM; stronger effect = higher value; zero percent set by DMSO-only wells.
Method in brief: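 Agonism was scored as beta-arrestin recruitment to ProLink-fused GPR32 in stably transfected CHO-K1 cells, giving a chemiluminescent beta-Gal signal; compounds were incubated 90 min at 37 °C.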
Further: 0% is about no effect.

Sequence of UniProt O75388 (O75388 whole entry, looked up, the tested form may be a part): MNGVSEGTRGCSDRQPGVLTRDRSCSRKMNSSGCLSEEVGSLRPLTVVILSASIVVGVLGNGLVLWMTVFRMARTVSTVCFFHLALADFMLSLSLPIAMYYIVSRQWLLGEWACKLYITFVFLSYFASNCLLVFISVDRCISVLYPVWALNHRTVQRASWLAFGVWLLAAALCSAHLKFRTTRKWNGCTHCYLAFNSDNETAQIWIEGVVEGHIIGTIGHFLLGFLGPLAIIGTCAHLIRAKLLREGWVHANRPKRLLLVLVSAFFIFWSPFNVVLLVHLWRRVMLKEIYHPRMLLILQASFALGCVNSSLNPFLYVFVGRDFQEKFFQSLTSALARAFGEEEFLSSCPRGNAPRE

activation, inactive:
COc1ccc(S(=O)(=O)N2CCC(n3c(C(F)(F)F)nc4cccnc43)CC2)cc1OC -12.7%
Cc1ccc(Cn2nnc(C(=O)Nc3ccc(F)c(F)c3)c2N)cc1 -13.2%
Cc1ccc(N(C)C(=O)C2CCN(S(=O)(=O)c3ccc4c(c3)CCCN4C(=O)C3CCC3)CC2)cc1 -25%
CCOc1ccccc1-n1cc2c(c1-c1ccc(OC)cc1)c(=O)n(C)c(=O)n2C -11.8%
COc1ccc(NC(=O)c2cn(-c3ccccc3)nc2-c2ccc(C)cc2)cc1 -8.55%
COC(=O)c1ccc(NC(=O)CN2CCN(c3ccc(Cl)cc3)CC2)cc1 3.29%
O=C1CC(c2ccccc2)Cc2[nH]c(=O)c(C(=O)Nc3cccc(Cl)c3)cc21 (stereo not drawn) -7.59%
Cc1c(Cl)cccc1NC(=O)CN1C(=O)COc2ccc(S(=O)(=O)Nc3ccccc3)cc21 9.39%
CCOC(=O)c1cccc(NC(=O)C(C)n2c(C)c3cnn(-c4ccccc4)c(=O)c3c2C)c1 (stereo not drawn) 9.21%
COc1ccc(NC(=O)c2ccc3c(c2)CCN3S(=O)(=O)c2ccc(C)cc2)cc1Cl 0.0023%
O=C(CSc1nc2ccccc2nc1Cc1ccccc1)Nc1ccc2c(c1)OCO2 -4.67%
CCCOC(=O)CSc1nnc2ccc3ccccc3n12 -0.0061%
Cc1ccc(NC(=O)CN(C)S(=O)(=O)c2ccc3nc(C)sc3c2)c(C)c1 -15.5%
CCCSCCCNC(=O)c1ccc(Cn2c(=O)c3cccn3c3cccnc32)cc1 13.3%
COc1cc(NC(=O)CSc2nc3nc(C)c(Cc4ccc(C)cc4)c(C)n3n2)cc(OC)c1 -14.9%
FC(F)(F)C(F)(F)C(F)(F)C(F)(F)C(F)(F)C(F)(F)C(F)(F)C(F)(F)Br -7.92%
COc1ccc(Cl)cc1NC(=O)CCc1c(C)nc2c(c1C)c(=O)n(C)c(=O)n2C 17.8%
COc1ccc(-c2nc3sc(CCNC(=O)c4cc(Cl)ccc4OC)c(C)n3n2)cc1 23.5%
Cc1ccccc1NS(=O)(=O)c1ccc(Br)s1 -2.11%
CN(Cc1ccccc1)S(=O)(=O)c1ccc(F)c(C(=O)Nc2cccc(Cl)c2Cl)c1 -6.28%
CCN(CC)c1cc2c(cc1F)c(=O)c(S(=O)(=O)c1cc(C)ccc1C)cn2Cc1ccccc1 -18.2%
Cc1c(/C=C(\C#N)C(=O)Nc2cccc(Cl)c2)c2ccccc2n1Cc1ccccc1Cl -9.36%
CCOC(=O)c1c(NC(=O)c2ccc(S(=O)(=O)N(CCOC)CCOC)cc2)sc2c1CC(C)(C)NC2(C)C -32.1%
Cc1cccc(CC2C(=O)Nc3ccccc32)c1 (stereo not drawn) -10.7%
CCOc1ccccc1-n1nnc(-c2nc(-c3ccccc3)no2)c1N 0.317%
CCOc1ccc(C2=NC(c3cccs3)=Nc3ccc(C(C)C)cc3N2)cc1 -37.5%
CCOC(=O)c1cccc(NC(=O)C2CCN(S(=O)(=O)c3ccc4c(c3)oc(=O)n4C)CC2)c1 -7.92%
COc1ccc(S(=O)(=O)N(CCc2ccccc2)CC(=O)Nc2cccc(OC)c2)cc1 -14.7%
CCc1ccc(C(=O)COC(=O)C(Cc2c[nH]c3ccccc23)NC(=O)c2ccc(Br)cc2)cc1 (stereo not drawn) -6.78%
CCOc1ccc(C2c3cc(OCC)c(OCC)cc3CC(=O)N2c2ccc(C(=O)O)cc2)cc1OCC (stereo not drawn) -1.03%
COc1ccccc1N1CCN(c2ncnc3c2cnn3C)CC1 6.03%
COc1ccc(CCN2C(=O)c3oc4ccc(F)cc4c(=O)c3C2c2ccc(C(C)(C)C)cc2)cc1 (stereo not drawn) 16.9%
CCc1cccc(C)c1NC(=O)Cn1ccn(-c2ccc(F)cc2)c(=O)c1=O -5.46%
CCOc1ccc(C2CC(=O)c3c([nH]c(C(=O)OCc4ccccc4)c3C)C2)cc1 (stereo not drawn) 49.1%
Cc1nc2ccc(S(=O)(=O)N(C)CC(=O)Nc3ccc(Br)c(C)c3)cc2s1 23.9%
Cc1ccc(CNC(=O)c2cnc(N3CCCC3)nc2C)cc1 3.29%
CCc1ccccc1NC(=O)c1nnn(CC(=O)Nc2c(C)cc(C)cc2C)c1N -8.84%
Cc1cc(C)c2c(NC(=O)c3ccccc3Cl)c(C(=O)Nc3ccc(C)c(C)c3)sc2n1 -4.83%
COc1cc(CNCCSc2nnnn2C)ccc1OCc1ccccc1 7.2%
CCC1=Nc2cc(C(=O)NC3CCCC3)ccc2Sc2ccc(Cl)cc21 -13.9%
CCOC(=O)c1cc(S(=O)(=O)N2CCN(c3cccc(C)c3)C(C)C2)[nH]n1 (stereo not drawn) -4.53%
Cc1ccc2nc3sc(C(=O)Nc4ccc(F)cc4)cc3cc2c1 -3.28%
COC(=O)c1ccc(NC(=O)C(C)N2Cc3ccccc3C2=O)cc1 (stereo not drawn) -1.75%
COc1ccc(N2CCN(C(=O)c3c(C)oc4ncn(CC(C)C)c(=O)c34)CC2)cc1 -5.5%
O=C(COCc1cc(-c2ccc(F)cc2)on1)Nc1cc(Cl)cc(Cl)c1 -7.69%
COc1ccc(CCNC(=O)c2cc(-c3ccc(C)cc3)nc3n[nH]c(-c4ccc(F)cc4)c23)cc1OC -10.1%
CCc1ccccc1NC(=O)Cn1cc(C(=O)c2ccncc2)c(=O)c2cc(C)ccc21 -13.2%
O=C(CCSCCc1ccccn1)Nc1ccccc1C(F)(F)F -1.48%
O=C(CCSCc1cccc(F)c1)NCCc1ccccc1 15.6%
Cc1ccc(N2CC(C(=O)NCCS(=O)(=O)N3CCN(c4ccc(F)cc4)CC3)CC2=O)cc1 (stereo not drawn) -6.17%
CC1=C(C(=O)Nc2cccc(F)c2)C2(CCCCCC2)OC1=O -12.1%
COc1cc(OC)c(NC(=O)Cn2c(=O)nc(-c3ccccc3)c3ccccc32)cc1Cl 11.3%
COCCCNc1oc(-c2ccc(COc3ccccc3C)o2)nc1C#N -14.9%
